Some of the results follow. At the low end of the ranking the order means little.

Experimental findings from publication PMC10668032 are described below.

The target of the assay is SIX1-Q177R homeodomain (UniProt Q15475). The experiment in a line: universal protein binding microarray. The following applies: Universal all-10-mer PBM (8x60K, AMADID 030236), 300 nM GST-tagged protein, Alexa Fluor 488 anti-GST; buffer, salt, pH and temperature not stated; high values mean tight binding; most listed sequences are background and not binding sites; double strand, one strand shown.
On to CTATAAAC, for which the binding signal was -0.0689 E-score. The result for ATAGTCTC reads -0.141 E-score; that for AGCTTGAA, -0.281 E-score. The same measure for GAGGTATC: 0.337 E-score; for ACTTTTCC: -0.144 E-score; for AATCAGCG: -0.185 E-score. Take AGCGAGAG: the binding signal was -0.0347 E-score.

Take CCACCGGG: the binding signal came out at 0.058 E-score. The result for CTTCGAAC reads -0.109 E-score; that for ACTATAGA, -0.0766 E-score.

In the case of AAAGTATG, the binding signal is -0.0784 E-score. The result for TCAGGACA reads -0.0188 E-score. The same measure for AAGTTATA: -0.0119 E-score; for ACACAGAC: 0.123 E-score; for AAGGAAAT: -0.2 E-score.

Take AGGCGTCG: the binding signal was 0.0453 E-score.

As to GCAAACAA, the binding signal was determined as 0.0233 E-score.

As for GCACACCA, the binding signal worked out at 0.401 E-score. For the sequence TGGTCACA, the binding signal is -0.0477 E-score. The same measure for ATGCCATA: -0.139 E-score; for ACTTAGTG: -0.0167 E-score; for GACTGCAA: -0.328 E-score.

Take AGCCGGCT: the binding signal is -0.107 E-score. The result for TCAAACAA reads -0.139 E-score; that for ATTATGGA, -0.0211 E-score.

In the case of ATCAGGGA, the binding signal worked out at 0.0618 E-score. In the case of CAGGGAAA, the binding signal is -0.245 E-score. The result for CATACCGC reads -0.0219 E-score. The same measure for TAGGCTGA: -0.019 E-score; for AGCTTGCA: -0.239 E-score. The result for GGCTAGGA reads -0.238 E-score; that for CGCATTGA, -0.0604 E-score. For the sequence GCTACAAA, the binding signal is -0.212 E-score. The same measure for GCGCCAAA: -0.0832 E-score; for ACTGCGGA: 0.00579 E-score; for GCCTTAGC: -0.118 E-score. As for CCTTGAGA, the binding signal stood at 0.0667 E-score. The same measure for CGACTCCG: 0.227 E-score; for GGCTGCAA: -0.0681 E-score. The same measure for CTGGGCAA: -0.175 E-score; for TCCGGCGA: -0.167 E-score. Turning to ACTCAGAG, the binding signal is -0.0267 E-score. The result for CGAGCAAG reads -0.019 E-score. The result for TAGGTACA reads 0.179 E-score. The result for ACCCTCGT reads 0.191 E-score; that for CCTCACCC, 0.154 E-score; that for GACCCAAA, -0.0846 E-score. GCTCTGGA: the binding signal is -0.0583 E-score.

Take AGGAAATG: the binding signal is -0.118 E-score. The result for CACTATAG reads 0.192 E-score. The result for AGTATAGC reads -0.23 E-score; that for AATGGCAG, -0.131 E-score; that for GCCCGAAC, -0.208 E-score. The same measure for AATGACTA: -0.128 E-score; for ATAAATTC: -0.0814 E-score; for AGGAAGAT: -0.0897 E-score. Regarding AGACGTGG, the binding signal is -0.0945 E-score. With AACTAAGG, the binding signal was -0.288 E-score. The same measure for CAATTGGG: -0.0255 E-score; for GCCAAACC: -0.118 E-score. The result for GGCCGATA reads -0.13 E-score; that for AGACGTAA, -0.0671 E-score; that for AACCAATA, -0.132 E-score. The same measure for CAAGGTGA: 0.0664 E-score; for GCCCGACC: -0.0715 E-score; for AGTGTCCG: 0.365 E-score. On to CAAATTAC, for which the binding signal was -0.0378 E-score. The result for ACTACGCC reads -0.0222 E-score; that for AGTGTTGC, 0.321 E-score; that for GCGGCTTA, -0.205 E-score. The same measure for CATAAGCA: 0.0155 E-score. The same measure for TCGTCCAA: -0.193 E-score. Regarding CAACCGTC, the binding signal was -0.231 E-score. The result for ACATAATG reads -0.137 E-score; that for ACGACACT, 0.428 E-score. For the sequence CTCCAGAA, the binding signal was -0.0585 E-score. The result for ATCGCTGA reads -0.18 E-score. For AACCCTCT, the binding signal stood at 0.00303 E-score. AGTTGAGG: the binding signal is -0.191 E-score.

AACGAGAG: the binding signal was -0.186 E-score. The result for ACCAATGC reads -0.081 E-score; that for CCAAGAGC, 0.106 E-score; that for CTACCGTA, -0.0805 E-score. The same measure for ATACCGTC: 0.0905 E-score. The same measure for CCGCTGCC: -0.0686 E-score; for CCCATCAG: 0.0999 E-score; for AGAGAACG: -0.188 E-score.

Take CCAGCTAG: the binding signal is -0.0135 E-score.

Consider CGAGGGTA, for which the binding signal came out at 0.0841 E-score. The result for TAGTTGGA reads -0.0294 E-score; that for CGACAGCG, -0.183 E-score. The result for CTGAAGGA reads -0.178 E-score; that for AGGGACCC, -0.0162 E-score; that for CGAAAGTC, -0.209 E-score.

With CCTAGGCA, the binding signal is -0.0906 E-score.

For the sequence AACAGTGG, the binding signal was -0.0612 E-score. Take AATTGGCG: the binding signal was -0.0628 E-score.

Regarding CAGACTTC, the binding signal worked out at 0.00528 E-score.

In the case of ATTGCTGC, the binding signal is -0.152 E-score. The result for CGTACATA reads 0.0438 E-score.

AGTGTAGC: the binding signal was determined as 0.394 E-score.

Take GACGCGAC: the binding signal was -0.0139 E-score.

In the case of ACTCCGAG, the binding signal was determined as 0.142 E-score.

Take GTATAAAC: the binding signal is 0.123 E-score. The result for CTTTGGTC reads -0.238 E-score. The same measure for GGTAACAC: 0.432 E-score.

Take CCGCCACA: the binding signal turned out to be 0.282 E-score. The same measure for AATCTTCT: 0.00395 E-score; for GTCAGTGA: 0.0324 E-score.
